Data as given in publication PMC4336329 (PLoS ONE, 2015).
The campaign covered roughly 310,000 compounds. About 2,200 (0.71%) showed an effect of 50% or more. Effects have a minus sign here. This is one part of the list. Where a SMILES comes first, the peptide text is derived from it. [ ]: non-standard residue; d: D form. The star is where a group is joined. Hyp = O=C(O)[CH]1C[CH](O)CN1; Cbz = O=C(OCc1ccccc1)*; OBn = c1ccc(CO*)cc1

Biological target: human ether-à-go-go-related gene (hERG) potassium channel (human, UniProt Q12809)
Test: primary screen, population patch clamp on CHO cells stably expressing hERG

Chain of human ether-à-go-go-related gene (hERG) potassium channel (Q12809 whole entry, looked up): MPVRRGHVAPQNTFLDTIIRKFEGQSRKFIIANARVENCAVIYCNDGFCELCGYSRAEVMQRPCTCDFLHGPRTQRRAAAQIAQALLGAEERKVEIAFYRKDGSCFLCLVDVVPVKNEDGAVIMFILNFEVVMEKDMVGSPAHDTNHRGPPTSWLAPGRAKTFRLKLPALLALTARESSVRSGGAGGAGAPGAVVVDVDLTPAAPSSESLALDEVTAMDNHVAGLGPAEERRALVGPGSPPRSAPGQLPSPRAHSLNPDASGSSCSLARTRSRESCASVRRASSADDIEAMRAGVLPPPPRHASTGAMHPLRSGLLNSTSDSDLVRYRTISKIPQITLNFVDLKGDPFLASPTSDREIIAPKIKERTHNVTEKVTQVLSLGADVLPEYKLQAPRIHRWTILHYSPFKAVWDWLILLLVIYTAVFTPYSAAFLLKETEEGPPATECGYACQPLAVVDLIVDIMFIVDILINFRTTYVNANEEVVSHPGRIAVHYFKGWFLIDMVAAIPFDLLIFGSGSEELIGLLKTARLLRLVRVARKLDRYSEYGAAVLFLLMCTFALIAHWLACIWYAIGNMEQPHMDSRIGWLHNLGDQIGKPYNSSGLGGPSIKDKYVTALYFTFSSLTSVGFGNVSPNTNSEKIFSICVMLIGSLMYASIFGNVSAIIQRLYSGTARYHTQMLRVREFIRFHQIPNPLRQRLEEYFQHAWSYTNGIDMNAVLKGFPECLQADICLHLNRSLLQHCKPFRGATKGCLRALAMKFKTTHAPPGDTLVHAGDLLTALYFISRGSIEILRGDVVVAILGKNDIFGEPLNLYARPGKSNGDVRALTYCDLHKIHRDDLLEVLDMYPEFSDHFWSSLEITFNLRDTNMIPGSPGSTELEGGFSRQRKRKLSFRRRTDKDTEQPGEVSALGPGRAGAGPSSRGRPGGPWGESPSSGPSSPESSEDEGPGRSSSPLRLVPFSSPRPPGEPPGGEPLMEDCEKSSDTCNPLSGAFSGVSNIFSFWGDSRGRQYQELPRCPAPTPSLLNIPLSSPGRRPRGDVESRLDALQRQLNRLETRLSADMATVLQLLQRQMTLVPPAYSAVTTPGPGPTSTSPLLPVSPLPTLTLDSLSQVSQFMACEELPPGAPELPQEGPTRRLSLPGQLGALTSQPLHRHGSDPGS

Point of comparison: `Clc1ccc(-c2noc(CN(Cc3ccccn3)CC3CCCO3)n2)cc1` (stereo not drawn), “hERG current change (%, negative = inhibition) at 1uM” value 0.387%. Against it:
- Cn1c(=O)[nH]c(=O)c2c1nc(N1CCc3ccccc3C1)n2CCSc1nc2ccccc2s1 — higher, 18.7%
- Cc1cccc(CCN(CC(=O)NC2CCCCC2)C(=O)c2csnn2)c1 — higher, 5.92%
- CC(C)c1cc(N2CCOCC2)n2ncc(-c3ccccc3)c2n1 — lower, -7.66%
- COc1ccc(C(CNC(=O)c2cccn2C)N2CCOCC2)cc1 (stereo not drawn) — higher, 6.05%
- CCOC(=O)c1cnc2ccccc2c1NCCc1ccc(OC)c(OC)c1 — lower, -72%
- Cc1nnc(C)n1/N=C/c1ccc(C(=O)O)cc1 — higher, 14%
- O=C(CSc1ccc(F)cc1)Nc1ccc(C2SCCS2)cc1 — higher, 9.58%
- CCN(CC)CCN(Cc1cc2cc3c(cc2[nH]c1=O)OCO3)C(=S)NCCCOC — higher, 5.24%
- COc1cccc(-c2nc(CS(=O)CC(=O)O)c(C)o2)c1 (stereo not drawn) — higher, 7.93%
- CC(=O)N/N=C/c1cc([N+](=O)[O-])ccc1OCCOc1ccccc1 — higher, 5.03%
- CCC(C)(C)NC(=O)c1sccc1Oc1ccc(F)cc1[N+](=O)[O-] — higher, 5.57%
- CCN1CCN(Cc2c(OC)ccc3ccccc23)CC1 — higher, 7.06%
- Cc1ccc2nc(N3CCN(CCO)CC3)nc(-c3ccccc3)c2c1 — lower, -9.56%
- O=C(CN1CCNCC1)Nc1ccc(Oc2ccccc2)cc1 — higher, 6.34%
- CCOc1ccc(N(C)S(=O)(=O)c2cnc[nH]2)cc1 — higher, 1.84%
- Cc1ccc(C(=O)Nc2cccc(C(F)(F)F)c2)cc1NC(=O)c1nccn1C — higher, 5.95%
- Cc1noc(C)c1C(=O)NC1=NCCS1 — lower, -8.14%
- O=C(NCc1ccc(C(F)(F)F)cc1)C1CC(c2ccccc2C(F)(F)F)=NO1 (stereo not drawn) — higher, 8.17%
- CCOCCCn1c(SCC(=O)Nc2ccc(OC)cc2)nc2ccccc2c1=O — higher, 5.8%
- CC(NC(=O)CN(C)Cc1cccc(F)c1)c1ccccc1 (stereo not drawn) — higher, 11.6%
- COCCn1c(C(=O)N2CCCC2)cc2c1C[C@H]1CN(C(=O)c3ccccc3)[C@@](Cc3ccc(F)cc3)(C(=O)OC)[C@@H]21 — higher, 3.78%
- CCOC(=O)c1c(C)[nH]c(C(=O)COC(=O)CNC(=O)c2ccc(Cl)cc2Cl)c1C — higher, 22.7%
- N#Cc1cn(Cc2ccccc2)c2ccccc12 — higher, 11.4%
- CCOc1ccc(-c2nnc(-c3ccncc3)o2)cc1OCC — higher, 4.87%
- CCS(=O)(=O)NCc1cn2ccsc2n1 — higher, 8.52%
- CCOC(=O)c1cc(NC(=O)Nc2ccc(OC)c(OC)c2)c(C)nc1C — higher, 13.5%
- COC(=O)CNC(=O)C1CCN(c2nc(C)cc(C)n2)CC1 — higher, 11.3%
- CCn1c(=O)n(CC(=O)N2CCC3(CC2)OCCO3)c(=O)c2ccccc21 — higher, 7.61%
- CC(C)=CCN1CCN(Cc2ccc(Sc3nncn3C)o2)CC1CCO (stereo not drawn) — higher, 19.2%
- COC(=O)c1ccc[n+](CCc2c[nH]c3ccccc23)c1.[Br-] — higher, 15.9%
- COc1ccc(S(=O)(=O)Nc2c(C(=O)O)[nH]c3ccc(OC)cc23)cc1 — higher, 12.6%
- O=C(CSc1nnc(-c2ccccc2)o1)N1CCCCC1 — higher, 10.9%
- NNC(=O)c1cc2c(N3CCC(Cc4ccccc4)CC3)ncnc2s1 — higher, 7.11%
- COc1ccc(C(=O)OC2C[C@H]3CC[C@@H](C2)N3O)cc1OC (stereo partly drawn) — higher, 12.4%
- COC(=O)C1(C)NCCc2c1[nH]c1ccccc21 (stereo not drawn) — higher, 13.2%
- c1ccc(OCc2nc(-c3cccs3)no2)cc1 — higher, 12.5%
- CCN1CCN(C(=O)C2CCN(Cc3cc(Cl)ccc3O)CC2)CC1.O=C(O)C(=O)O — higher, 2.93%
- COCCn1c(SCC(=O)NCc2cccs2)nnc1-c1ccc(OC)cc1 — higher, 15.1%
- CCCn1c2ccccc2c2nnc(SCc3[nH]c(=O)[nH]c3C(=O)CCCCC(=O)OCC)nc21 — higher, 3.48%
- CCOC(=O)Cc1csc(NC(=O)CCSc2ccccc2)n1 — higher, 7.34%
- CC(=O)Oc1ccc(C(=O)Nc2cccnc2)cc1 — higher, 13.2%
- CCSc1nnc(NC(=O)c2ccc(C)o2)s1 — higher, 9.75%
- Cn1c(COc2ccc(Cl)cc2)nnc1SCC(=O)NC1CC1 — lower, -3.09%
- COc1ccccc1N1CCN(C(C)C(=O)Nc2ccc(S(=O)(=O)N3CCOCC3)cc2)CC1 (stereo not drawn) — lower, -1.47%
- Cc1ccccc1OC/C(O)=C(\C#N)c1nc2ccccc2[nH]1 — higher, 7.44%
- CCO[C@@H]1OC(C(=O)N2CCN(Cc3ccc4c(c3)OCO4)CC2)=C[C@H](c2cn(C(C)=O)c3ccccc23)[C@H]1CCCO — higher, 11.8%
- CCOCCCNC(=O)C(Cc1ccccc1)NS(=O)(=O)c1ccc2c(c1)c(=O)n(C)c(=O)n2C (stereo not drawn) — higher, 2.62%
- Cc1ccc(-c2nn[nH]n2)cc1Cl — higher, 11.7%
- O=C1C2C3C=CC(C2C(=O)N1c1ccccc1O)C1C2C(=O)N(c4ccccc4O)C(=O)C2C31 (stereo not drawn) — higher, 13.1%
- COc1ccc(-n2c(SCC(=O)Nc3cccc4ccccc34)nc(O)cc2=O)cc1 — higher, 15.4%
- O=C(c1ccc(-n2c(SCc3cc(F)ccc3F)nc3ccccc3c2=O)cc1)N1CCOCC1 — higher, 14%
- CC1CCc2sc3ncn4nc(C(=O)NCc5ccco5)nc4c3c2C1 (stereo not drawn) — lower, -2.05%
- CC(C)(C)C1CCc2onc(C(=O)Nc3ccc4c(c3)OCO4)c2C1 (stereo not drawn) — higher, 8.94%
- CC(=O)C1=C(C)NC(SCC(=O)c2ccc(Cl)c(Cl)c2)=C(C#N)C1c1ccco1 (stereo not drawn) — higher, 10%
- O=C(CN1C(=O)CCS(=O)(=O)c2ccccc21)NCc1ccc(F)cc1 — higher, 2.98%
- CC(C)c1nc(SCC(=O)N2CCOCC2)c2c(=O)n(C)c(=O)n(C)c2n1 — higher, 6.43%
- Cc1nnsc1NC(=O)OCc1ccc(Cl)cc1Cl — higher, 2.17%
- CCOc1ccccc1OCCOCCOc1c(Cl)cccc1Cl — higher, 6.46%
- Nc1c(C(=O)Nc2ccccc2F)sc2nc(-c3cccnc3)ccc12 — higher, 21%
- Cc1cc(CCCCCCCCc2cc(C)cc(=O)o2)oc(=O)c1 — higher, 13.2%
- COc1cc(C(=O)OCC(=O)Nc2ccc(C)cc2)cc(OC)c1OC — higher, 14.1%
- Cc1ccccc1C(=O)c1c[nH]c(C(N)=O)c1 — higher, 7.7%
- Clc1ccccc1-c1ccc2ncnc(NCc3ccc4c(c3)OCO4)c2c1 — higher, 16.4%
- CC(NC(=O)CNC(=O)OCc1ccccc1)C(=O)N1CC(O)CC1C(=O)OCc1ccccc1 (stereo not drawn) (Cbz-Gly-Ala-[Hyp]-OBn; configuration not given here) — higher, 13.7%
- COc1ccc(CN(C(=O)Cn2nnc3ccccc32)C(C(=O)NC(C)(C)C)c2ccco2)cc1 (stereo not drawn) — lower, 0.341%
- Cc1cc(C)n2c3c(c(C#N)c2n1)CC(C)(C)OC3 — higher, 10.4%
- N#Cc1c2c(c(Nc3ccccc3)n3c1nc1ccccc13)CCC2 — higher, 10.4%
- O=C(Nn1c(-c2ccncc2)nc2ccccc2c1=O)c1ccc(Br)cc1 — higher, 0.826%
- CCOC(=O)C1=C(COC(=O)C2CC(=O)N(c3ccc(CC)cc3)C2)NC(=O)NC1C (stereo not drawn) — higher, 9.71%
- c1ccc(-n2ncc3c(N4CCN(c5ccccn5)CC4)nc(N4CCCCCC4)nc32)cc1 — higher, 4.45%
- CC(C)(C)c1cc([N+](=O)[O-])cc(C(C)(C)C)c1O — higher, 4.13%
- COc1ccc(/C=C/C(=O)Nc2ccccc2C(=O)O)cc1 — higher, 6.8%
- CCOc1ccc(OCC)c(NC(=O)CCn2cccc2)c1 — higher, 8.35%
- O=C(c1cc(Cl)cc(Cl)c1)N1CCC(=O)N(C(COCc2ccccc2)Cc2ccccc2)CC1 (stereo not drawn) — higher, 8.01%
- COc1ccc(NC(=O)CN(C)CCOc2ccc(Cl)cc2)cc1OC.O=C(O)C(=O)O — higher, 8.34%
- CC(=O)c1c(C)nn(CCC(=O)O)c1C — higher, 12.2%
- CC(=O)Nc1ccc(S(=O)(=O)N(C)CC(=O)OC(C)C(=O)N(C)C2CCCCC2)cc1 (stereo not drawn) — higher, 10.1%
- Cc1cc(C)n(CC(O)COc2ccccc2C(=O)Nc2ccccc2)n1 (stereo not drawn) — higher, 7.38%
- O=C(C1CCCN(C2CC(=O)N(c3ccc(F)cc3)C2=O)C1)N1CCCC1 (stereo not drawn) — higher, 13.8%
- CCOC(=O)C1CCCN(C(=O)c2ccccc2NC(=O)C2=C(C)OCCS2)C1 (stereo not drawn) — higher, 21.6%
- CC(C)(C)C(=O)N1CCN(C(c2ccccc2)c2ccccc2)CC1 — higher, 7.71%
- Cc1ccc(-n2ncc3c(NNC(=O)c4ccco4)ncnc32)c(C)c1 — higher, 17.8%
- O=C(Nc1nn(Cc2ccccc2F)cc1Br)c1cccs1 — higher, 1.57%
- COCCn1c(SCC(=O)Nc2cccc(OC)c2)nc2c(oc3ccccc32)c1=O — lower, -9.21%
- CCOC(=O)c1ccc(NC(=S)N2CCN(S(C)(=O)=O)CC2)cc1 — higher, 4.07%
- Cl.O=[N+]([O-])c1cc(S(=O)(=O)CCCN2CCOCC2)ccc1F — higher, 11.5%
